# Reference: the RNAGym collection of RNA variant scans (doi:10.1073/pnas.2313332121)
# This sample is rich in variants without activity.
# B1: TPR 5TU (parent)
# chain: GGAUCUUCUCGAUCUAACAAAAAAGACAAAUCUGCCACAAAGCUUGAGAGCAUCUUCGGAUGCAGAGGCGGCAGCCUUCGGUGGCGCGAUAGCGCCAACGUUCUCAACUAUGACACGCAAAACGCGUGCUCCGUUGAAUGGAGUUUAUCAUG
# Variants of: B1
# Assay: polymerase ribozyme fitness, log enrichment relative to wild type (log ratio); higher = more active; in vitro selection for triplet polymerase activity
# Summary of the method: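 For each subunit of a heterodimeric triplet polymerase ribozyme, a mutant library was built by PCR and transcribed, then taken through a single in vitro selection round in triplicate. Selection involved annealing to a biotinylated primer, the partner subunit and triplets, incubation frozen at −7 °C, gel excision of extended constructs, capture on streptavidin beads and RT-PCR. Genotypes were retained after Illumina sequencing of inputs and outputs only with ≥10 input reads and ≥1 read in each output. Fitness is defined as the logarithm of a genotype's enrichment relative to wild-type enrichment, using inverse-variance-weighted averages across replicates, with the logarithm taken to base 2.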
row,Variant,polymerase ribozyme fitness (log ratio)
1,GGAUCUUCUCGAUCUAACAAAAAAGACAAAUCUGCCACAAAGCUUGAGAGCAUCUUCGGAUGCAGAGGCGGCAGCCUUCGGUGGCGCUAUAGCGCCAACGUUCUCAACGAUGACACGCAAAACGCGUGCUCCGUUGAAUGGAGUUUAUCAUG [G88U U109G],≤ -4.2
2,GGAUCUUCUCGAUCUAACAAAAAAGACAAAUCUGCCACAAAGCUUGAGAGCAUCUUCGGAUGCAGAGGCGGCAGCCUUCGGUGGCGCUAUAGCGCCAACGUUCUAAACUAUGACACGCAAAACGCGUGCUCCGUUGAAUGGAGUUUAUCAUG [G88U C105A],≤ -4.2
3,GGAUCUUCUCGAUCUAACAAAAAAGACAAAUCUGCCACAAAGCUUGAGAGCAUCUUCGGAUGCAGAGGCGGCAGCCUUCGGUGGCGCUAUAGCGCCAACGUUCUCAACUAUGACACGCAAAACGCGUGCUCCGUUGACUGGAGUUUAUCAUG [G88U A138C],≤ -4.2
4,GGAUCUUCUCGAUCUAACAAAAAAGACAAAUCUGCCACAAAGCUUGAGAGCAUCUUCGGAUGCAGAGGCGGCAGCCUUCGGUGGCGCGCUAGCGACAACGUUCUCAACUCUGACACGCAAAACGCGUGCUCCGUUGAAUGGAGUUUAUCAUG [A89C C95A A110C],≤ -4.2
5,GGAUCUUCUCGAUCUAACAAAAAAGACAAAUCUGCCACAAAGCUUGAGAGCAUCUUCGGAUGCAGAGGCGGCAGCCUUCGGUGGCGCUAUAGCGCCAACGUUCUCAACUAUGACACGCAAAACGCGUGCUCCGUUGAAUGGAGUUUAUCAUG [G88U],-3.89
6,GGAUCUUCUCGAUCUAACAAAAAAGACAAAUCUGCCACAAAGCUUGAGAGCAUCUUCGGAUGCAGAGGCGGCAGCCUUCGGUGGCGCUAUAGCGCCAAGGUUCUCAACUAUGACACGCAAAACGCGUGCUCCGUUGAAUGGAGUUUAUCAUG [G88U C99G],≤ -4.2
7,GGAUCUUCUCGAUCUAACAAAAAAGACAAAUCUGCCACAAAGCUUGAGAGCAUCUUCGGAUGCAGAGGCGGCAGCCUUCGGUGGCGCGCUAGCGCAGACGUUCUCAACUAUGAGACGCAAAACGCGUGCUCCGUUGAAUGGAAUUUAUCAUG [A89C C96A A97G C114G G143A],≤ -4.2
8,GGAUCUUCUCGAUCUAACAAAAAAGACAAAUCUGCCACAAAGCUUGAGAGCAUCUUCGGAUGCAGAGGCGGCAGCCUUCGGUGGCGCCAUAGCGCCAACGUUCUCAACUAUGACACGCAAAACGCGUGCUCCGUUGAAUGGAGUUAAUCAUG [G88C U146A],≤ -4.2
9,GGAUCUUCUCGAUCUAACAAAAAAGACAAAUCUGCCACAAAGCUUGAGAGCAUCUUCGGAUGCAGAGGCGGCAGCCUUCGGUGGCGCCAUAGCGCCAACGUUCUCAACUAUGACACGCAAAACGCGUGCUCCGUUGAAUGGAGUUGAUCAUG [G88C U146G],≤ -4.2
10,GGAUCUUCUCGAUCUAACAAAAAAGACAAAUCUGCCACAAAGCUUGAGAGCAUCUUCGGAUGCAGAGGCGGCAGCCUUCGGUGGCGCUAUAACGCCAAAGUUCUCAAGUAUGACACGCAAAACGCGUGCUCCGUUGAAGGGAGUUUAUCAUG [G88U G92A C99A C108G U139G],≤ -4.2
11,GGAUCUUCUCGAUCUAACAAAAAAGACAAAUCUGCCACAAAGCUUGAGAGCAUCUUCGGAUGCAGAGGCGGCAGCCUUCGGUGGCGCUAUAGUGCCAACGUUCUCAACUAUGACACGCAAAACGCGUGCUCCGUUGAAUGGAGUUUAUCAUG [G88U C93U],≤ -4.2
12,GGAUCUUCUCGAUCUAACAAAAAAGACAAAUCUGCCACAAAGCUUGAGAGCAUCUUCGGAUGCAGAGGCGGCAGCCUUCGGUGGCGCUAUAGCGCCAACGUUCUCAACUAUGACACGCAAAACGCGUGCUCCGAUGAAUGGAGUUUAGCAUG [G88U U134A U148G],≤ -4.2
13,GGAUCUUCUCGAUCUAACAAAAAAGACAAAUCUGCCACAAAGCUUGAGAGCAUCUUCGGAUGCAGAGGCGGCAGCCUUCGGUGGCGCUAUAGCGCCAACGUUCUCAACUAUGUCACGCAUAACGCGUGCUUCGUUGAAUGGAGUUUAGCAUG [G88U A113U A120U C131U U148G],≤ -4.2
14,GGAUCUUCUCGAUCUAACAAAAAAGACAAAUCUGCCACAAAGCUUGAGAGCAUCUUCGGAUGCAGAGGCGGCAGCCUUCGGUGGCGCGCUAGCGUCAACGUUCUCAACUAUGACACGCAAAACGCGUGCUCCGUUGAAUGGAGUUUAUCAUG [A89C C95U],-1.49
15,GGAUCUUCUCGAUCUAACAAAAAAGACAAAUCUGCCACAAAGCUUGAGAGCAUCUUCGGAUGCAGAGGCGGCAGCCUUCGGUGGCGCUAUAGCGCCAACGUUCGCAACUAUGACACGCAAAACGCGUGCUCCGUUGAAUGGAGUUUAUCUUG [G88U U104G A150U],≤ -4.2
16,GGAUCUUCUCGAUCUAACAAAAAAGACAAAUCUGCCACAAAGCUUGAGAGCAUCUUCGGAUGCAGAGGCGGCAGCCUUCGGUGGCGCGCUAGGGCCAACGUUGUCAACUAUGACACGCAAAACGCGUGCUCCGUUGAAUGGAGUUUAUCAUG [A89C C93G C103G],≤ -4.2
17,GGAUCUUCUCGAUCUAACAAAAAAGACAAAUCUGCCACAAAGCUUGAGAGCAUCUUCGGAUGCAGAGGCGGCAGCCUUCGGUGGCGCUAUAGCGCCAACGUUCUCAACUAUGACACGCAAAACGCGUGCUCCGUUGAAUGCAGUUGAUCAUG [G88U G141C U146G],≤ -4.2
18,GGAUCUUCUCGAUCUAACAAAAAAGACAAAUCUGCCACAAAGCUUGAGAGCAUCUUCGGAUGCAGAGGCGGCAGCCUUCGGUGGCGCGCUAGCGCCAACGUUCUCAACUAUGACACGCAAAACGCGUGCUCCGUUGAAUGGGGUUUAUCAUG [A89C A142G],-1.52
19,GGAUCUUCUCGAUCUAACAAAAAAGACAAAUCUGCCACAAAGCUUGAGAGCAUCUUCGGAUGCAGAGGCGGCAGCCUUCGGUGGCGCCAUAGCGCCAACGUUCUCAACUAUGACACGCAAAACGCGGGCUCCGUUGAAUGGAGUUUAUCAUG [G88C U127G],≤ -4.2

row,Variant,polymerase ribozyme fitness (log ratio)
1,GGAUCUUCUCGAUCUAACAAAAAAGACAAAUCUGCCACAAAGCUUGAGAGCAUCUUCGGAUGCAGAGGCGGCAGCCUUCGGUGGCGCUAUAGCGGCAACGUUCUCAACUAUGACUCGCAAAAGGCGUGGACCGUUGAAUUGAGUGUAUCAUG [G88U C95G A115U C123G C129G U130A G140U U145G],≤ -4.2
2,GGAUCUUCUCGAUCUAACAAAAAAGACAAAUCUGCCACAAAGCUUGAGAGCAUCUUCGGAUGCAGAGGCGGCAGCCUUCGGUGGCGCUAUAGCGGCAACGUUCUCAACUAUGACACGCAAAACGUGUGCUCCGUUGAAUGGAGUUUAUCAUG [G88U C95G C125U],≤ -4.2
3,GGAUCUUCUCGAUCUAACAAAAAAGACAAAUCUGCCACAAAGCUUGAGAGCAUCUUCGGAUGCAGAGGCGGCAGCCUUCGGUGGCGCUAUAGCGCCAACGUUCUCAACUAUGAUACGCAAAACGCGUGCUCCGUUGAAUGGAGUUUAACAGG [G88U C114U U148A U151G],≤ -4.2
4,GGAUCUUCUCGAUCUAACAAAAAAGACAAAUCUGCCACAAAGCUUGAGAGCAUCUUCGGAUGCAGAGGCGGCAGCCUUCGGUGGCGCUAUAGAGCCAACGUUCUCAACUAUGACACGCAAAACGCUUGCUCCGUUGAGUGGAGCUUAUCAUG [G88U C93A G126U A138G U144C],≤ -4.2
5,GGAUCUUCUCGAUCUAACAAAAAAGACAAAUCUGCCACAAAGCUUGAGAGCAUCUUCGGAUGCAGAGGCGGCAGCCUUCGGUGGCGCUAUAGCGCCAACGUUCUCAACUAUGACACGCAACACGCGUGCUCCGUUGAAUGGAGUUUAUCAUG [G88U A121C],≤ -4.2
6,GGAUCUUCUCGAUCUAACAAAAAAGACAAAUCUGCCACAAAGCUUGAGAGCAUCUUCGGAUGCAGAGGCGGCAGCCUUCGGUGGCGCUAUAGUGCCAACGUUCUUAACUAUGACACGCAAAACGCGUGCUCCGUUGAAUGGAGUUUAUAAUG [G88U C93U C105U C149A],≤ -4.2
7,GGAUCUUCUCGAUCUAACAAAAAAGACAAAUCUGCCACAAAGCUUGAGAGCAUCUUCGGAUGCAGAGGCGGCAGCCUUCGGUGGCGCUACAGCGCCAACGUUCUCAACUAUGACACGCAAAACGCGUGCUCCCUUGCAUGGAGUUUAUCAUG [G88U U90C G133C A137C],≤ -4.2
8,GGAUCUUCUCGAUCUAACAAAAAAGACAAAUCUGCCACAAAGCUUGAGAGCAUCUUCGGAUGCAGAGGCGGCAGCCUUCGGUGGCGCGCUAGCGCCAACGUUCUCAACUAUGACACGCAAAACGCGUGCUCCGUUGAAUGGAGUUUAUCAUG [A89C],-0.82
9,GGAUCUUCUCGAUCUAACAAAAAAGACAAAUCUGCCACAAAGCUUGAGAGCAUCUUCGGAUGCAGAGGCGGCAGCCUUCGGUGGCGCGCUAGCUCCAACGUUCUCAACGAUGCGACGCAAAACGCGUGCUCCGUUGAAUGGAGUUUAUCAUG [A89C G94U U109G A113C C114G],≤ -4.2
10,GGAUCUUCUCGAUCUAACAAAAAAGACAAAUCUGCCACAAAGCUUGAGAGCAUCUUCGGAUGCAGAGGCGGCAGCCUUCGGUGGCGCGCUAGCGCCAACGUUCUCAUCUAUGACACGCAAAACGCGUGCUCCGUUGAAUGGAGUUUAUCAUG [A89C A107U],≤ -4.2
11,GGAUCUUCUCGAUCUAACAAAAAAGACAAAUCUGCCACAAAGCUUGAGAGCAUCUUCGGAUGCAGAGGCGGCAGCCUUCGGUGGCGCGCUAGCGCCAACGUUCUCACCUAUGACACGCAAAACGCGUGCUCCGUUGAAUGGAGUUUAUCAUG [A89C A107C],-4.06
12,GGAUCUUCUCGAUCUAACAAAAAAGACAAAUCUGCCACAAAGCUUGAGAGCAUCUUCGGAUGCAGAGGCGGCAGCCUUCGGUGGCGCGCUAGCGCCAACGUUCUCAACUAUGACACGCAAAACGCGUGCUCCGUUGAAUGGAAUUUAUCAUG [A89C G143A],-0.0918
13,GGAUCUUCUCGAUCUAACAAAAAAGACAAAUCUGCCACAAAGCUUGAGAGCAUCUUCGGAUGCAGAGGCGGCAGCCUUCGGUGGCGCUAUAGCGCCAACGUUCUCAACUAUGACGCGCAAUACGCGUGCUCCGUUGAAUGGAGUUUAUCAUG [G88U A115G A121U],≤ -4.2
14,GGAUCUUCUCGAUCUAACAAAAAAGACAAAUCUGCCACAAAGCUUGAGAGCAUCUUCGGAUGCAGAGGCGGCAGCCUUCGGUGGCGCUAUAGCGCCAACGUUCUCAACUAUGACACGCAAAACGCGCGCUCCGUUGAAUGGAGUUUAUCAUG [G88U U127C],-4.15
15,GGAUCUUCUCGAUCUAACAAAAAAGACAAAUCUGCCACAAAGCUUGAGAGCAUCUUCGGAUGCAGAGGCGGCAGCCUUCGGUGGCGCUAUAGCGACAACGUUCUCAACUAUGACACGCAAAACGCGUGCUCCGAUGAAUGGAGUUUAUCAUG [G88U C95A U134A],≤ -4.2
16,GGAUCUUCUCGAUCUAACAAAAAAGACAAAUCUGCCACAAAGCUUGAGAGCAUCUUCGGAUGCAGAGGCGGCAGCCUUCGGUGGCGCGCUAGCGCCAACGUUCUCAAGUAUGACACGCAAAACGCGUGCUCGGUUGAAUGGAGUUUAUCAUG [A89C C108G C132G],≤ -4.2
17,GGAUCUUCUCGAUCUAACAAAAAAGACAAAUCUGCCACAAAGCUUGAGAGCAUCUUCGGAUGCAGAGGCGGCAGCCUUCGGUGGCGCUAUAGUGCCAACGUUUUCAACUAUGACACGCAAAACGCGUGCUCCGUUCAACGGAGUUUAUCAUG [G88U C93U C103U G136C U139C],≤ -4.2
18,GGAUCUUCUCGAUCUAACAAAAAAGACAAAUCUGCCACAAAGCUUGAGAGCAUCUUCGGAUGCAGAGGCGGCAGCCUUCGGUGGCGCGCUAGCGCUAACGUUCUCAACUAUGACACGCAAAACGCGUGCUCCGUUGAAUGGAGUUUAUCAUG [A89C C96U],-1.26
19,GGAUCUUCUCGAUCUAACAAAAAAGACAAAUCUGCCACAAAGCUUGAGAGCAUCUUCGGAUGCAGAGGCGGCAGCCUUCGGUGGCGCUAUAGCGCCAACGUUCUCAACUAUGACACGCAAAACGCGUGCUCCGUUGGAUGGAGUUUAUCAUG [G88U A137G],≤ -4.2
